B1: OR4K15 (parent)
chain: GUUAACGGUCAUAGGCCAUGGAAACUAGGAGCACCAUUUCGCUGCCAGUGAAGAAAUGAACAAAGAAAAUCUGGGCCAGGCAGGCAUCAAAAGAAAUAGUCUUGCGCUCAACCAGAAAGUCUGUAAUCAUUUUAAGGGUA

Read counts are not given, so values of variants with three or more changes are uncertain.

The variants in this data set derive from B1. Nature of the data set: self-cleavage, relative activity (ratio to wild type); higher = more cleavage; in vitro, sequencing; the parent is a self-cleaving ribozyme.
Take GUUAACGGUCAUAGGCCUUGGAAACUAGGAGCACCAUUUCGCUGCCAGUGAAGGAAUGAGCAAAGAAAAUCUGGGCCAGGCAGGCAUCAAAAGAAAUAGUCUUGCGCUCAACCAGAAAGUCUGUAAUCAUUUUAAGGGUA [A18U A54G A60G]: the self-cleavage is 1.03.
With GUUAACGGUCAUAGGCCUUGGAAACUAGGAGCACCAUUUCGCUGCCAGUGAAGAAAUGAUCAAAGAAGAUCUGGGCCAGGCAGGCAUCAAAAGAAAUAGUCUUGCGCUCAACCAGAAAGUCUGUAAUCAUUUUAAGGGUA [A18U A60U A68G], the self-cleavage was 1.28.
The value for GUUAACGGUCAUAGGCCUUGGAAACUAGGAGCACCAUUUCGCUGCCAGUGAAGAAAUGAACAAAGAAAAUCUGGGCCAGGCAGGCAUCAAAGGAAAUAGUCUUGCGCUCAACCAGAAAGUCUGUAUUCAUUUUAAGGGUA [A18U A92G A126U] was 0.65; that for GUUAACGGUCAUAGGCCUUGGAAACUAGGAGCACCAUUUCGCUGCCAGUGAAGAAAUGAUCAAAGAAAAUCUGGGCCAGGCAGGCACCAAAAGAAAUAGUCUUGCGCUCAACCAGAAAGUCUGUAAUCAUUUUAAGGGUA [A18U A60U U87C] was 0.74; that for GUUAACGGUCAUAGGCCUUGGAAACUAGGAGCACCAUUUCGCUGCCAGUGAAGAGAUGAACAAAGAAAAUCUGGGCCAGGCAGGCAUCAAAAGAAAUAGUCUUGCGCUCAACCAGAAAGUCUGUUAUCAUUUUAAGGGUA [A18U A55G A125U] was 1.57.
To GUUAACGGUCAUAGGCCUUGGAAACUAGGAGCACCAUUUCGCUGCCAGUGAAGGUAUGAACAAAGAAAAUCUGGGCCAGGCAGGCAUCAAAAGAAAUAGUCUUGCGCUCAACCAGAAAGUCCGUAAUCAUUUUAAGGGUA [A18U A54G A55U U122C] belongs 0.94; to GUUAACGGUCAUAGGCCUUGGAAACUAGGAGCACCAUUUCGCUGCCAGUGAAGAAAUGUACUAAGAAAAUCUGGGCCAGGCAGGCAUCAAAAGAAAUAGUCUUGCGCUCAACCAGAAAGUCUGUAAUCAUUUUGAGGGUA [A18U A59U A62U A134G], 1.35; to GUUAACGGUCAUAGGCCUUGGAAACUAGGAGCACCAUUUCGCUGCCAGUGAAGAAAUGAUCAAAGAAAAUCUGGGCCAGGCAGGCAUCAAAAGAGAUAGUCUUGCGCUCAACCAGAAAGUCUGUAAUCAUUUUAAGGGUA [A18U A60U A95G], 1.73.
The value for GUUAACGGUCAUAGGCCUUGGAAACUAGGAGCACCAUUUCGCUGCCAGUGGAGAAAUGAACAAAGAAAAUCUGGGCCAGGCAGGCUUCAAAAGAAAUAGUCUUGCGCUCAACCAGAAAGUCUGUAAUCAUUUUAAGGGUA [A18U A51G A86U] was 2.19.
As for GUUAACGGUCAUAGGCCUUGGAAACUAGGAGCACCAUUUCGCUGCCAGUGAAGAAAUGAACAAAGAAAAUCUGGGCCAGGCAGGCAUCAAAAGAAAUAGUCUUGCGCUCAACCGGAAAGUCCGUAAUCAUUUUAAGGGUA [A18U A114G U122C], the self-cleavage came to 0.03.
As to GUUAACGGUCAUAGGCCUUGGAAACUAGGAGCACCAUUUCGCUGCCAGUGAAGAAAUGAACAAAGAAAAUCUGGGCCAGGCAGGCAUCAAGAGAAAUAGUCUUGCGCUCAACCAGAAAGUCUGUAGUCAUUUCAAGGGUA [A18U A91G A126G U133C], the self-cleavage stood at 1.25.
The value for GUUAACGGUCAUAGGCCUUGGAAACUAGGAGCACCAUUUCGCUGCCGGUGAAGAAGUGGACAAAGAAAAUCUGGGCCAGGCAGGCAUCAAAAGAAAUAGUCUUGCGCUCAACCAGAAAGUCUGUAAUCAUUUUAAGGGUA [A18U A47G A56G A59G] was 1.32; that for GUUAACGGUCAUAGGCCUUGGAAACUAGGAGCACCAUUUCGCUGCCAGUGAAGAAAUGAACAAAGAAAAUCUGGGCCAGGCAGGCAUCAAAAGGAAUAGUCUUGCGCUCAACCAGAGAGUCUGUAAUCAUUUUAAGGGUA [A18U A94G A117G] was 1.61; that for GUUAACGGUCAUAGGCCUUGGAAACUAGGAGCACCAUUUCGCUGCCAGUGAUGAAAUGAACAAAGGAAAUCUGGGCCAGGCAGGCAUCAAAAGAAAUAGUCUUGCGCUCAACCAGAAAGUCUGUAAGCAUUUUAAGGGUA [A18U A52U A66G U127G] was 0.5.
In the case of GUUAACGGUCAUAGGCCUUGGAAACUAGGAGCACCAUUUCGCUGCCAGUGAAGAAAUGGACGAAGAAAAUCUGGGCCAGGCAGGCAUCAAAAGAAAUAGUCCUGCGCUCAACCAGAAAGUCUGUAAUCAUUUUAAGGGUA [A18U A59G A62G U102C], the self-cleavage was 2.06.
As for GUUAACGGUCAUAGGCCUUGGAAACUAGGAGCACCAUUUCGCUGCCAGUGAAGAAAUGAACAAAGGAAAUCUGGGCCAGGCAGGCAUCAAAAGAAACAGUCUUGCGCUCAACCAGAAAGUCUGUAAUCAUUUUAAGGGUA [A18U A66G U97C], the self-cleavage turned out to be 0.54.
Regarding GUUAACGGUCAUAGGCCUUGGAAACUGGGAGCACCAUUCCGCUGCCAGUGAAGAAAUGAACAAAGAAAAUCCGGGCCAGGCAGGCAUCAAAAGAAAUAGUCUUGCGCUCAACCAGAAAGUCUGUAAUCAUUUUAAGGGUA [A18U A27G U39C U72C], the self-cleavage is 0.38.
The value for GUUAACGGUCAUAGGCCUUGGAAACUAGGAGCACCAUUUCGCUGCCAGUGAAGAAAUGAACAAAGAAAAUCUGGGCCAGGCAGGCAUCAAAAGAAAUAGUCUUGCGCUCAACCAGUAAGUCUGUAAUCAUCUUAAGGGUA [A18U A116U U131C] was 0.2; that for GUUAACGGUCAUAGGCCUUGGAAACUAGGAGCACCAUUUCGCUGCCAGUGAAGAAAUGAACAAAGAAAAUCUGGGCCAGGCAGGCAUCAAAAGAGAUAGUCUUGCGCUCAACCAGAAAGUCUGUAAUCAUUUUAAGGGGA [A18U A95G U139G] was 1.91; that for GUUAACGGUCAUAGGCCUUGGAAACUAGGAGCACCAUUUCGCUGCCAGUGAGGAAAUGAACAAAGAAAAUCUGGGCCAGGCAGGCAUCGAAAGAAAUAGUCCUGCGCUCAACCGGAAAGUCUGUAAUCAUUUUAAGGGUA [A18U A52G A89G U102C A114G] was 1.66.
On to GUUAACGGUCAUAGGCCUUGGAAACUAGGAGCACCAUUUCGCUGCCAGUGAAGAAAUGAACAAAGAAAAUCUGGGCCAGGCAGGCAUCAAAAGAAGUAGUCUUGCGCUCAGCCUGAAAGUCUGUAAUCAUUUUAAGGGUA [A18U A96G A111G A114U], for which the self-cleavage was 0.02.

The values are drawn from the RNAGym collection of RNA variant scans (doi:10.7554/elife.90254).
